Experimental data published in PubChem BioAssay AID485297 (National Center for Advancing Translational Sciences (NCATS), 2010).
The whole screen tested about 320,000 compounds, of which about 9,100 (2.8%) were called active. Inconclusive means that the source gave no clear call. Such entries were picked first, then a sample of the others. Calls follow the shape of the dose curve; as a rule, active = well fitted activation curve with a large enough effect; inconclusive = small, poorly fitted or top-dose-only effect; inactive = no such curve, though single readings can be large or run the other way. No potency is given beside an inconclusive call; the fits are too rough.

Test: qHTS Assay for Rab9 Promoter Activators; also: nearly all actives have a fitted effect of over 60% in size
Settings: Huh7 Rab9 promoter-luciferase reporter, luminescence, 24 h; series mostly up to 9.22 µM
Summary of the method: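 Steps: seed 1500 Huh7 Rab9-luc cells per well, rest 2 h at 37 °C; add compound in DMSO; incubate 24 h; add luciferase reagent, 10 min ambient; read luminescence.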
Potency is read from the fitted curve at half-maximal effect; tags tell the direction and shape of the fitted curve.

Compound | Potency
Cc1cc(C(=O)N/N=C/c2cccc(Cl)c2Cl)no1 | inconclusive [activator, single point]
O=c1c2ccccc2oc2cc(NCCCn3ccnc3)ccc12 | active: 0.708 µM
Cc1nnc(NC(=O)/C=C/c2ccco2)s1 | inactive
CC(=Nc1ccccc1O)c1sc2ccccc2c1O | inconclusive [activator, partial curve]
COc1ccc(C(=O)NC2CC(C)(C)Cc3c2cnn3-c2ccccc2C)c(OC)c1OC (centres undefined) | inconclusive [activator, single point]
Cn1nnc2cc(C(=O)Nc3ccccc3F)ccc21 | inconclusive [activator, single point]
Cc1ccc(C(=O)N(C)c2ccc(OCC(=O)N3c4ccc(C)cc4C4CN(C)CCC43)cc2)cc1 (centres undefined) | inconclusive [activator, partial curve]
N=c1oc2ccccc2cc1C(=O)Nc1ccc(F)cc1 | active: 0.501 µM
Fc1cccc(-c2cc3nc4c(c(NCc5ccco5)n3n2)CCCC4)c1 | inconclusive [activator, single point]
Cc1sc(NC(=S)NC(=O)c2ccco2)c(C(N)=O)c1C | inconclusive [activator, single point]
Cc1ccc(-c2cc3nc(-c4ccccc4)cc(N4CCC5(CC4)OCCO5)n3n2)cc1 | inactive
Cc1nc(SCc2ccccc2)n[nH]1 | inconclusive [activator, partial curve]
O=C(CN1C2CCCC1CC(NC(=O)C1CCCCC1)C2)Nc1ccccc1C(F)(F)F (centres undefined) | inactive
CCCn1c(NC(=S)Nc2ccccc2)nc2ccccc21 | inactive
O=[N+]([O-])c1c(NCCCO)cc(N2CCN(Cc3ccc4c(c3)OCO4)CC2)c2nonc12 | inactive
CCOC(=O)c1c(N)sc(C(=O)OCCOC)c1C | inconclusive [activator, partial curve]
O=C(Nc1cc2c(cc1Cl)OCCCO2)c1ccc(F)cc1 | active: 2.82 µM
O=C(N/N=C/c1cn(-c2ccccc2)nc1-c1cccs1)c1ccccc1F | inactive
Cc1c(NC(=O)c2ccc(COc3ccc4ccccc4c3)o2)c(=O)n(-c2ccccc2)n1C | inconclusive [activator, partial curve]
CCN(CC)S(=O)(=O)c1ccc2oc(Nc3ccccc3)nc2c1 | inconclusive [activator, partial curve]
CCCN(Cc1ccc(C)cc1)C(=O)c1ccc(CNS(=O)(=O)c2ccc(C(C)=O)cc2)cc1 | inconclusive [activator, single point]
COc1ccc(CCN2CC(C(=O)NCCc3ccccc3C(F)(F)F)CCC2=O)cc1 (centres undefined) | inconclusive [activator, single point]
Nc1ccn(Cc2ccccc2)n1 | inactive
COc1cccc(C2=NOC(C(=O)N3CCN(Cc4ccccc4)CC3)C2)c1OC (centres undefined) | inactive
COc1ccc(-c2csc(N=C(N)N)n2)cc1 | inconclusive [activator, single point]

Compound | Potency
Brc1ccc(-c2nc(-c3ccncc3)no2)o1 | inconclusive [activator, partial curve]
COc1ccc(-c2cc(C(=O)N3CCCC3)no2)cc1OC | inconclusive [activator, single point]
COc1ccc(OCc2cc(C(=O)N(C)Cc3cc(C)no3)no2)c(Cl)c1 | active: 3.98 µM
O=[N+]([O-])CC(=Nc1ccc(Cl)cc1)N/N=C\c1oc(O)c2ccccc12 | inconclusive [activator, partial curve]
NNC(=O)COc1ccccc1[N+](=O)[O-] | inactive
Cc1nnc(NC(=O)Nc2cccc(Cl)c2)s1 | inconclusive [activator, single point]
Cc1ccc2nc(-c3ccc(NC(=O)CCS(=O)(=O)c4ccccc4)cc3)sc2c1 | active: 0.316 µM
Cc1cc(N2CCOCC2)nc2ccc(NC(=O)CCC(=O)N3CCC(C)CC3)cc12 | active: 4.47 µM
O=C(CSc1cn[nH]n1)Nc1nc2ccccc2s1 | inconclusive [activator, partial curve]
CCC(=O)Nc1cccc(NC(C)=O)c1 | inconclusive [activator, single point]
CC(=O)Nc1cccc(NC(=O)C(=O)Nc2ccc3c(c2)N(C(=O)C2CC2)CCC3)c1 | inconclusive [activator, partial curve]
CCc1ccc(NC(=O)c2n[nH]c(=O)c3ccccc23)cc1 | active: 2.51 µM
CN(C)C(=O)c1ccc(-c2cc(C(F)(F)F)nn2C)s1 | inconclusive [activator, partial curve]
Nc1cc(C2CCCC2)nn1-c1ccccc1 | inconclusive [activator, partial curve]
O=C(CCc1nnc(CCCCc2ccccc2)o1)N1CCCC(O)C1 (centres undefined) | inactive
Cc1cccc(-c2nnc(SCc3ccccc3)o2)c1 | inconclusive [activator, partial curve]
O=C(NCC(=O)N1CCCCCC1)c1ccc(Br)cc1 | inactive
Cc1cc(O)ccc1-c1cnc2ccccc2n1 | inactive
COc1ccc(C(=O)NCCn2ccc3ccccc32)cc1 | active: 1.41 µM
O=C(NC1CC1)c1sc2cc(F)ccc2c1Cl | inconclusive [activator, single point]
O=C(CSc1nnc(-c2ccco2)o1)c1ccccc1Cl | inconclusive [activator, single point]
O=C(NCCc1ccccc1)c1ccc2c(c1)OCCCO2 | inconclusive [activator, partial curve]
COc1ccc(/C=C/c2nc(-c3ccccc3O)n[nH]2)cc1OC | inconclusive [activator, single point]
Cc1cc(=O)[nH]c2nnc(-c3ccc(Br)cc3)n12 | inconclusive [activator, partial curve]
